Results published in the supplement of paper PMC3334620.
The full ranking holds about 33,000 sequences; the median of “E-score (-0.5 to 0.5)” is about -0.012, and the highest 2% start at about 0.27. Some of the results follow.

What follows are sequences tested against T1, Vhr1 (UniProt P40522) (assay: PBM E-score (8-mer binding enrichment) (E-score (-0.5 to 0.5)); higher = stronger / more preferred TF binding; most listed sequences are background and not binding sites). Conditions: protein concentration: 200 nM; construct: GST-full length.
T1 sequence: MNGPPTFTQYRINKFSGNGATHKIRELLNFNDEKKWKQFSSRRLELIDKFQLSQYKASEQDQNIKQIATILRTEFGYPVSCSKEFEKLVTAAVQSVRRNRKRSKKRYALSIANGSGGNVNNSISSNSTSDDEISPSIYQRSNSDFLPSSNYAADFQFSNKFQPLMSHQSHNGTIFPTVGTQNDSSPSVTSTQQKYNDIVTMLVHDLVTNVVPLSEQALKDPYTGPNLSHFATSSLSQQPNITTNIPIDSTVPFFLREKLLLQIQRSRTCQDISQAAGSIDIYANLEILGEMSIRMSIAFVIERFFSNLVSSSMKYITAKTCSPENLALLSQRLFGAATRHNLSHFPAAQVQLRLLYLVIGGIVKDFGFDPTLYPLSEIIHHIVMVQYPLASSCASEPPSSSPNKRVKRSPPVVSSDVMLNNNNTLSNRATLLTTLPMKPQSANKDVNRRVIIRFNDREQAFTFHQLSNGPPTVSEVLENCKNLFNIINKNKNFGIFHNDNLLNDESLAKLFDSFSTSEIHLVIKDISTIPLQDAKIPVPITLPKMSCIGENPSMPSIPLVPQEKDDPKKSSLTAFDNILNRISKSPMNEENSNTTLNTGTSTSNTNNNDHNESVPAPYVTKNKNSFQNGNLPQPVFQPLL
Experimental: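 Universal 'all 10-mer' protein binding microarrays (Agilent AMADID 015681) probed with GST-tagged S. cerevisiae TFs (full-length or DBD) made by in vitro transcription/translation (PURExpress), about 100-200 nM. Bound TF was detected with fluorescent anti-GST. Each ungapped 8-mer (which stands for itself and its reverse complement) is scored by the PBM enrichment score (E-score), a modified Wilcoxon-Mann-Whitney statistic from -0.5 to +0.5, computed with the Universal PBM Analysis Suite. Scale: above 0.35 generally sequence-specific binding.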

| Sequence | PBM E-score |
| --- | --- |
| CACCACCC | 0.0779 |
| ATGATCTC | -0.00737 |
| CAACCGCA | 0.0762 |
| CGTACTTA | -0.0118 |
| AACTTGGG | 0.0097 |
| GACCGCCA | 0.0067 |
| CGTGAGTA | 0.21 |
| AAGCTCGC | -0.00364 |
| GTTTGCAA | 0.175 |
| AGGTTGTC | -0.0977 |
| CGACGCTC | -0.0422 |
| ATATTTTC | 0.14 |
| AAGGCCTC | -0.215 |
| ACGCTGTC | -0.122 |
| CTGCACAC | 0.045 |
| ACTCAAGA | 0.0906 |
| CTGGGCCC | -0.251 |
| CTACGAGC | -0.0087 |
| CCTAGTCG | 0.0391 |
| AACGACCG | -0.0534 |
| AGATAGCG | -0.114 |
| AGTAAATA | -0.0184 |
| ATCTCTGC | 0.0623 |
| ATGGCTTG | 0.0554 |
| ATTTACTG | 0.0372 |

| Sequence | PBM E-score |
| --- | --- |
| AACCTGTG | 0.02 |
| AATTGGGA | -0.0558 |
| TAACGCTA | -0.116 |
| AACAATGT | -0.00812 |
| CGATTCGA | 0.255 |
| CCGCGCAA | -0.026 |
| AATGCCCC | -0.148 |
| ACACTAGT | 0.0508 |
| GATAGCTA | -0.0679 |
| CGACTGAC | -0.135 |
| GTACCAGA | -0.0612 |
| CAAATATC | 0.0967 |
| CCCGTACA | -0.13 |
| ACGCTTCT | -0.117 |
| GAGCTGGA | -0.0872 |
| GCCAACAC | -0.015 |
| GTGCAGTA | 0.0719 |
| CAATCTTC | 0.104 |
| ATCTCGTG | -0.111 |
| ATTCCCCC | -0.205 |
| TGGTTTAA | -0.113 |
| CACGCCCC | 0.0402 |
| ATACGCAG | 0.0799 |
| ATCACTCC | 0.0947 |
| CTTTAATA | 0.0826 |

| Sequence | PBM E-score |
| --- | --- |
| ACATGCAG | -0.0126 |
| CTACCGAG | -0.0848 |
| CTAGTGGC | -0.14 |
| AACAGGTA | -0.099 |
| AATAGGCC | -0.259 |
| AGACAAAC | -0.0742 |
| CGTCGAAC | -0.159 |
| CCACCCGG | 0.0735 |
| AACAAACT | 0.0344 |
| ACTCAAAG | 0.0428 |
| CAAACGAA | -0.127 |
| ATGAGGTC | 0.0111 |
| AGTGGTCA | -0.0615 |
| CCGGATGA | 0.0435 |
| AAGCGTGA | 0.0681 |
| AGCAAGCC | -0.0172 |
| CCTCGACC | -0.0347 |
| CTCAGCGA | 0.0396 |
| GTTGTCTA | -0.0562 |
| ATCGACAG | 0.0207 |
| CACACAGA | 0.263 |
| AGCCTAAG | -0.262 |
| TATCGATA | 0.193 |
| ACCTGGAT | 0.103 |
| GGAGTAGA | 0.00284 |

| Sequence | PBM E-score |
| --- | --- |
| ACGCGTAT | 0.0675 |
| ACTGTCCA | -0.208 |
| CCAAGACG | -0.141 |
| CTTGTCGA | -0.218 |
| AGCTGGTC | -0.172 |
| AACCTATA | 0.00671 |
| CGTCTAAG | -0.0385 |
| AGAGCCAT | 0.0261 |
| GCCAGTCC | -0.0716 |
| CTGCACTC | 0.0835 |
| AGACCCCG | 0.177 |
| CAGTTCCG | 0.0373 |
| AAATTTGG | -0.188 |
| ATAAGCGC | 0.057 |
| ATGAGTCC | 0.389 |
| ACTGTTTC | -0.0525 |
| AGCCCGAC | 0.0296 |
| ACCTATCT | -0.0256 |
| GACCCCTA | -0.176 |
| GATCGAGC | 0.141 |
| CCCACGTC | -0.0264 |
| GACAAAGC | -0.181 |
| AATGAGGG | 0.0336 |
| CTTGCACA | 0.0429 |
| CGCGGCAG | 0.1 |

| Sequence | PBM E-score |
| --- | --- |
| TGATCACA | 0.159 |
| AGCAATGA | 0.0423 |
| GGAGTTCA | -0.0497 |
| AGCAACGG | 0.0294 |
| ATCGGTTG | 0.0695 |
| ATGAGGCG | -0.0535 |
| ACGATAGT | 0.156 |
| CTGGGGGC | -0.332 |
| TAGAACTA | -0.112 |
| CGGCAATA | -0.0777 |
| AGCCAGGC | 0.17 |
| CCTACGTA | -0.0698 |
| CTGGATCA | 0.0971 |
| AAATGGCG | -0.305 |
| CGAATTCA | -0.0677 |
| AATCTCAT | 0.113 |
| CTAGGGGA | -0.122 |
| CAGTCACA | 0.348 |
| CCGTCTGC | -0.0839 |
| AAATGTCG | -0.131 |
| AGCCAAAT | -0.0105 |
| TATTACAA | -0.0398 |
| ACAACGAG | 0.0559 |
| ATGCGGTA | 0.0789 |
| TCGTCGCA | 0.111 |

| Sequence | PBM E-score |
| --- | --- |
| GAGCTGCC | -0.0317 |
| CGGAAAGA | -0.074 |
| CCAAACTA | 0.108 |
| AACGAACT | -0.161 |
| GACACTGC | 0.144 |
| CCATAACC | 0.0967 |
| AAGGAGCA | -0.156 |
| CACAATCC | 0.0784 |
| CTCGACAG | -0.067 |
| ATTTTTAG | -0.224 |
| ACTCACGA | 0.243 |
| CTGGTGTC | 0.153 |
| ACCTGACA | 0.15 |
| GGGTGTAC | 0.00652 |
| ATTACTGG | -0.0353 |
| ACTATGTG | 0.292 |
| GTAGTCGA | 0.175 |
| AGTACATG | 0.084 |
| CAGCGGTC | -0.122 |
| ACTTCCGG | -0.203 |
| AAGGGAGC | -0.00034 |
| ACCTGAAA | -0.0389 |
| AAGCATGT | 0.0488 |
| GATAAAGC | -0.216 |
| CCCAGTCA | 0.151 |

| Sequence | PBM E-score |
| --- | --- |
| CCGGATCC | -0.0685 |
| GGAATTGA | -0.0146 |
| ACTAATGA | 0.198 |
| TCCGCTCA | -0.0681 |
| ATTGAAAC | -0.00267 |
| GGGTTACA | -0.00648 |
| ACGTATTA | 0.197 |
| CACTCGTA | -0.0431 |
| ATCCTACC | 0.0595 |
| CTCGCAGA | -0.0216 |
| AGCCGGTG | 0.236 |
| GAGGGTAC | 0.0901 |
| AGGTGATC | 0.115 |
| ACGTCCAT | -0.123 |
| AGCGCAGG | -0.0624 |
| CGATCACG | 0.0834 |
| CGGCCACG | -0.175 |
| CGCGAAGC | 0.0898 |
| ACAGTCTC | 0.0655 |
| CGGACTAC | 0.0519 |
| CAGCAGGC | 0.207 |
| ACTTAGAG | -0.256 |
